From patent publication US20250059278A1 (SICHUAN HUIYU PHARMACEUTICAL, published 2025)

B1: CD3-MSLN bispecific antibody B42 (bispecific antibody, human IgG1, lambda)
heavy: EVQLVESGGGLVQPGGSLRLSCAASGFTFNTYAMNWVRQAPGKGLEWVARIRSKYNNYATYYADSVKGRFTISRDDSKSSLYLQMNNLKTEDTAMYYCVRHGNFQNSYVSWFQYWGQGTLVTVSSASTKGPSVFPLAPSSKSTSGGTAALGCLVKDYFPEPVTVSWNSGALTSGVHTFPAVLQSSGLYSLSSVVTVPSSSLGTQTYICNVNHKPSNTKVDKKV[letters of human IgG1 Fc with changes omitted]GGGGSGGGGSEVQLVESGGGLVQAGESLRLSCAVSGNIGSIRHMGWHRQDPGKERELVATITTVGTTYYANFVKGRFTISRDNAKNTVYLQMNSLKPEDTGVYYCRATAHPTDYWGQGTQVTVSS
light: [letters of about 100 residues omitted][letters of about 100 residues omitted]
notes: [VH42]-[CH]-[L]-[3C6 VHH] with [VL-1]-[CL]
B2: CD3-MSLN bispecific antibody B43 (bispecific antibody, human IgG1, lambda)
heavy: EVQLVESGGGLVQPGGSLRLSCAASGFTFNTYAMNWVRQAPGKGLEWVARIRSKYNNYATYYADSVKDRFTISRDDSKSILYLQMNSLKTEDTAMYYCVRPGNFPNSYVSWFALWGQGTLVTVSSASTKGPSVFPLAPSSKSTSGGTAALGCLVKDYFPEPVTVSWNSGALTSGVHTFPAVLQSSGLYSLSSVVTVPSSSLGTQTYICNVNHKPSNTKVDKKV[letters of human IgG1 Fc with changes omitted]GGGGSGGGGSEVQLVESGGGLVQAGESLRLSCAVSGNIGSIRHMGWHRQDPGKERELVATITTVGTTYYANFVKGRFTISRDNAKNTVYLQMNSLKPEDTGVYYCRATAHPTDYWGQGTQVTVSS
light: [letters of about 100 residues omitted][letters of about 100 residues omitted]
notes: [VH43]-[CH]-[L]-[3C6 VHH] with [VL-1]-[CL]
B3: CD3-MSLN bispecific antibody B44 (bispecific antibody, human IgG1, lambda)
heavy: EVQLVESGGGLVQPGGSLRLSCAASGFTFNTYAMNWVRQAPGKGLEWVARIRSKYNNYATYYADSVKDRFTISRDDSKSSLYLQMNNLKTEDTAMYYCVRHGNFQNSYISWFAYWGQGTLVTVSSASTKGPSVFPLAPSSKSTSGGTAALGCLVKDYFPEPVTVSWNSGALTSGVHTFPAVLQSSGLYSLSSVVTVPSSSLGTQTYICNVNHKPSNTKVDKKV[letters of human IgG1 Fc with changes omitted]GGGGSGGGGSEVQLVESGGGLVQAGESLRLSCAVSGNIGSIRHMGWHRQDPGKERELVATITTVGTTYYANFVKGRFTISRDNAKNTVYLQMNSLKPEDTGVYYCRATAHPTDYWGQGTQVTVSS
light: [letters of about 100 residues omitted][letters of about 100 residues omitted]
notes: [VH44]-[CH]-[L]-[3C6 VHH] with [VL-1]-[CL]
B4: CD3-MSLN bispecific antibody B45 (bispecific antibody, human IgG1, lambda)
heavy: EVQLVESGGGLVQPGGSLRLSCAASGFTFNTYAMNWVRQAPGKGLEWVARIRSKYNNYATYYADSVKDRFTISRDDSKSSLYLQMNNLKTEDTAMYYCVRHSNFGNSYVSWFQYWGQGTLVTVSSASTKGPSVFPLAPSSKSTSGGTAALGCLVKDYFPEPVTVSWNSGALTSGVHTFPAVLQSSGLYSLSSVVTVPSSSLGTQTYICNVNHKPSNTKVDKKV[letters of human IgG1 Fc with changes omitted]GGGGSGGGGSEVQLVESGGGLVQAGESLRLSCAVSGNIGSIRHMGWHRQDPGKERELVATITTVGTTYYANFVKGRFTISRDNAKNTVYLQMNSLKPEDTGVYYCRATAHPTDYWGQGTQVTVSS
light: [letters of about 100 residues omitted][letters of about 100 residues omitted]
notes: [VH45]-[CH]-[L]-[3C6 VHH] with [VL-1]-[CL]
B5: CD3-MSLN bispecific antibody B46 (bispecific antibody, human IgG1, lambda)
heavy: EVQLVESGGGLVQPGGSLRLSCAASGFTFNTYAMNWVRQAPGKGLEWVARIRSKYNNYATYYADSVKDRFTISRDDSKSILYLQMNSLKTEDTAMYYCVRHANFGNSYVSWFASWGQGTLVTVSSASTKGPSVFPLAPSSKSTSGGTAALGCLVKDYFPEPVTVSWNSGALTSGVHTFPAVLQSSGLYSLSSVVTVPSSSLGTQTYICNVNHKPSNTKVDKKV[letters of human IgG1 Fc with changes omitted]GGGGSGGGGSEVQLVESGGGLVQAGESLRLSCAVSGNIGSIRHMGWHRQDPGKERELVATITTVGTTYYANFVKGRFTISRDNAKNTVYLQMNSLKPEDTGVYYCRATAHPTDYWGQGTQVTVSS
light: [letters of about 100 residues omitted][letters of about 100 residues omitted]
notes: [VH46]-[CH]-[L]-[3C6 VHH] with [VL-1]-[CL]
B6: CD3-MSLN bispecific antibody B3 (bispecific antibody, human IgG1, lambda)
heavy: EVQLVESGGGLVQPGGSLRLSCAASGFTFNTYAMNWVRQAPGKGLEWVARIRSKYNNYATYYADSVKDRFTISRDDSKSILYLQMNSLKTEDTAMYYCVRHGNFGNSYVSWFEYWGQGTLVTVSSASTKGPSVFPLAPSSKSTSGGTAALGCLVKDYFPEPVTVSWNSGALTSGVHTFPAVLQSSGLYSLSSVVTVPSSSLGTQTYICNVNHKPSNTKVDKKV[letters of human IgG1 Fc with changes omitted]GGGGSGGGGSEVQLVESGGGLVQAGESLRLSCAVSGNIGSIRHMGWHRQDPGKERELVATITTVGTTYYANFVKGRFTISRDNAKNTVYLQMNSLKPEDTGVYYCRATAHPTDYWGQGTQVTVSS
light: [letters of about 100 residues omitted][letters of about 100 residues omitted]
notes: [VH3]-[CH]-[L]-[3C6 VHH] with [VL-1]-[CL]

Tests used:
[1] = molecular target: T1, Human CD3εγ recombinant antigen (acrobiosystems, Cat. No. CDG-H52W5) (human, UniProt P07766 23-126; P09693 23-116); assay: SPR chip (Carterra), antibody captured, antigen in flow
T1 construct: Bought recombinant protein

[2] = molecular target: T2, Monkey CD3 on cynomolgus HSC-F cells (cynomolgus monkey, UniProt Q95LI5 22-198; Q95LI7 23-181; Q95LI8 22-171); assay: flow cytometry on HSC-F cells
T2 construct: whole, on cells; also called Monkey CD3-expressing cynomolgus HSC-F cells; cynomolgus monkey CD3-expressing HSC-F cells
T2 sequence (Q95LI5 22-198, chain 1 of 3): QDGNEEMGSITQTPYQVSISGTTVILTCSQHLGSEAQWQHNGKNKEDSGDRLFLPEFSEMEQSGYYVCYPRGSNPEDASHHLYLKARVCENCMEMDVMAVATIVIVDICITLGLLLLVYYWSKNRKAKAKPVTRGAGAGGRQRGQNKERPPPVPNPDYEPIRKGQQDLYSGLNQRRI
T2 sequence (Q95LI7 23-181, chain 2 of 3, further chain): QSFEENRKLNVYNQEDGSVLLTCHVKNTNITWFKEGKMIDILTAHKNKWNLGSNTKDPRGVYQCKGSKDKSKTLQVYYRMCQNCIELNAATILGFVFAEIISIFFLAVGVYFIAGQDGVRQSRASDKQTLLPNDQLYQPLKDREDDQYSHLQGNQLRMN
T2 sequence (Q95LI8 22-171, chain 3 of 3, further chain): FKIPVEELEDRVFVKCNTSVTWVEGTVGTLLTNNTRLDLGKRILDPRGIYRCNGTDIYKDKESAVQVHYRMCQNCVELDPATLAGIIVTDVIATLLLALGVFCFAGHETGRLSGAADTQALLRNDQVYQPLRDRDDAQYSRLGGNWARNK

[3] = molecular target: T3, Human CD3 on Jurkat cells (human, UniProt P07766; P09693; P04234); assay: flow cytometry on Jurkat cells
T3 construct: whole, on cells; also called Human CD3-expressing Jurkat cells; Jurkat (naturally expressing human CD3)

[4] = molecular target: T3, Human CD3 on Jurkat cells; assay: cell-based or functional assay
T3 sequence (P07766 23-207, chain 1 of 3): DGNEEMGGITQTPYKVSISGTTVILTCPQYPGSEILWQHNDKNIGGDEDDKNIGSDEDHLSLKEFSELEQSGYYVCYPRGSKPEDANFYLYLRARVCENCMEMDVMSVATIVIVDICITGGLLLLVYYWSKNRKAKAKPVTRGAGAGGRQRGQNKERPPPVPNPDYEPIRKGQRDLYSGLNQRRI
T3 sequence (P09693 23-182, chain 2 of 3, further chain): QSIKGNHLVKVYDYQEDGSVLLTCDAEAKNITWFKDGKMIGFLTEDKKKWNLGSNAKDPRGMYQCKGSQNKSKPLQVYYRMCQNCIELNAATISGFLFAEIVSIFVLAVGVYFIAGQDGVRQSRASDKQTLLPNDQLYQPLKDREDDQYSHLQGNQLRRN
T3 sequence (P04234 22-171, chain 3 of 3, further chain): as the sequence (Q95LI8 22-171, chain 3 of 3, further chain) above, with V5I, K15N, V20I, T32S, N33D, N34I, A64T, N74S, L83V, R141H counted along it

Binder | Kd [1] [nM] | koff [1] [s⁻¹] | kon [1] [M⁻¹ s⁻¹] | EC50 [2] [nM] | EC50 [3] [nM] | EC50 (nM), activation of Jurkat-TIGIT-luc cells with MC38/MSLN tumor cells [4] [nM] | EC50 (nM), activation of T cell activation signaling pathway, Jurkat-TIGIT-luc cells without tumor cells [4] [nM]
B1 | 1.4 | 0.0018 | 1.2e+06 | 0.204 | 0.439 | – | –
B2 | 15 | 0.0017 | 110000 | 0.401 | 9.8 | 0.006 | 0.52
B3 | 2.6 | 0.0029 | 1.1e+06 | 0.315 | 1.95 | – | –
B4 | 0.95 | 0.0016 | 1.6e+06 | 0.285 | 0.376 | – | –
B5 | 1.6 | 0.0016 | 1e+06 | 0.15 | 0.203 | – | –
B6 | 1.5 | 0.0017 | 1.2e+06 | 0.253 | 0.271 | – | –
